Assay results reported in PubChem BioAssay AID1458 (National Center for Advancing Translational Sciences (NCATS), 2008).
Hit rate of the full screen: of about 210,000 compounds, about 5,900 (2.8%) were called active. The inconclusive results got no clear call from the source; some entries with a clear call stand among them for comparison. Calls follow the shape of the dose curve; as a rule, active = well fitted activation curve with a large enough effect; inconclusive = small, poorly fitted or top-dose-only effect; inactive = no such curve, though single readings can be large or run the other way. Potencies of inconclusive entries are doubtful fits and often do not repeat.

Experiment: qHTS Assay for Enhancers of SMN2 Splice Variant Expression; also: nearly all actives have a fitted effect of over 55% in size
Details: HEK293 SMN2-luciferase splicing reporter, luminescence, 30-36 h; series mostly up to 46.1 µM
In short: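 qHTS luciferase splicing reporter: luminescence rises when SMN2 exon 7 is included in transfected HEK293 cells. Compound exposure lasted 30-36 h at 37C, with 4.5 mM final sodium butyrate as control, followed by a ONE-Glo read.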
Potency is read from the fitted curve at half-maximal effect; tags tell the direction and shape of the fitted curve.

SMILES | Potency
O=C(COc1ccccc1[N+](=O)[O-])N/N=C/c1ccc(O)cc1 | inconclusive: 35.5 µM [activator, single point]
CCN(CC)S(=O)(=O)c1cccc(NC(=O)Nc2cccc(C(F)(F)F)c2)c1 | inactive
CC(OC(=O)c1cc(Cl)ccc1[N+](=O)[O-])C(=O)NC(C)c1ccc(F)cc1 (centres undefined) | inconclusive: 3.16 µM [activator, partial curve, poor fit]
CC(C)(C)c1ccc(OCC(=O)O)cc1 | inconclusive: 25.1 µM [activator, partial curve, poor fit]
Cc1nnc(SCC(=O)NC2CCCCC2)n(N)c1=O | inconclusive: 0.316 µM [activator, single point]
COc1ccc(-c2cc(C(=O)NC(C)C)no2)cc1 | active: 12.6 µM
COc1cc(NC(=O)CN2CC(c3ccccc3)CC2=O)cc(OC)c1 (centres undefined) | inconclusive: 35.5 µM [activator, single point]
CCc1ccccc1N(CC)C(=O)C(=O)Nc1ccc2nc3n(c(=O)c2c1)CCCCC3 | inactive
COC(=O)c1ccc(S(=O)(=O)NNC(=O)COc2ccc(C)cc2)cc1 | inactive
Cc1nn(CC(=O)Nc2ccccn2)c(=O)c2ccccc12 | inconclusive: 0.141 µM [activator, full curve, poor fit]
COc1ccc(N2C(=S)NC3N2C(=S)NC3(C)c2ccccc2)cc1 (centres undefined) | inconclusive: 31.6 µM [activator, single point]
Cc1ccc2nc(-c3ccc(NC(=O)COC(=O)c4ccc(=O)[nH]c4)cc3)sc2c1 | active: 1.58 µM
Cc1cccc(-n2cnc(C(=O)Nc3cccnc3)c2)n1 | inconclusive: 28.2 µM [activator, single point]
O=C(Nc1nc2ccc(S(=O)(=O)N3CCCCC3)cc2s1)C1CCCO1 (centres undefined) | inconclusive: 35.5 µM [activator, partial curve]
COc1cccc(-n2c(C)nc3c(cnn3-c3ccc(C)c(C)c3)c2=O)c1 | inactive
Cc1ccc(Cn2c(C)c3cnn(CC(=O)N4CCN(c5cc(C)ccc5C)CC4)c(=O)c3c2C)cc1 | inactive
COC(=O)C1=C(C)Nc2sc(C(N)=O)c(N)c2C1c1ccncc1 (centres undefined) | inconclusive: 22.4 µM [activator, single point]
COCCNC(=O)CN1CCN(C(c2ccccc2)c2ccccc2)CC1 | inconclusive: 5.01 µM [activator, partial curve]
O=C(Nc1cccc(O)c1)c1ccc([N+](=O)[O-])cc1Cl | inconclusive: 35.5 µM [activator, single point]
COC(=O)c1ccccc1NC(=O)Cn1c(=O)oc2ccc(Cl)cc21 | inactive
Cc1cc(C)c(-c2n[nH]c3c2C(c2ccccc2F)N(CCO)C3=O)c(O)c1 (centres undefined) | inactive
COc1ccc(-c2csc(NC(=S)NC(=O)c3ccco3)n2)cc1 | inconclusive: 22.4 µM [activator, single point]

SMILES | Potency
COc1ccccc1/C=C/C=N/NC(=O)Cc1cccs1 | inconclusive: 14.1 µM [activator, single point]
COc1ccc(Nc2nc(N)nc(CSc3nccc(C)n3)n2)cc1 | inconclusive: 35.5 µM [activator, partial curve, poor fit]
O=C(NCCCNCCCNC(=O)c1ccccn1)c1ccccn1 | inconclusive: 0.398 µM [activator, full curve]
Brc1ccccc1-c1nnc(CSc2nnc3sc4ccccc4n23)o1 | inactive
Cc1c(/C=C/C(=O)c2ccccc2)cnn1C | inconclusive: 35.5 µM [activator, single point]
O=C(Nc1ccc(S(=O)(=O)Nc2nccs2)cc1)C1CCCCC1 | inconclusive: 11.2 µM [activator, partial curve]
COc1ccc2nc(-c3ccccc3)cc(OC)c2c1 | inconclusive: 22.4 µM [activator, single point]
COc1ccc(-c2nc(-c3ccccc3OC)no2)cc1OC | inconclusive: 31.6 µM [activator, single point]
CCOc1ccc2nc(/N=C/c3c(C)[nH]n(-c4ccccc4)c3=O)sc2c1 | active: 22.4 µM
COc1cccc(C(=O)NC2=NC(c3ccccc3F)CC(=O)N2)c1 (centres undefined) | inconclusive: 5.62 µM [activator, single point]
CCCn1nnc(NC(=O)c2ccc(OC)cc2)n1 | inconclusive: 15.8 µM [activator, single point]
CCCCOc1cccc(-c2nnc(NC(=O)CSc3ccc(C)cc3)s2)c1 | inconclusive: 0.0089 µM [activator, full curve, poor fit]
CCOc1ccc(N(Cc2cc3ccc(C)cc3[nH]c2=O)S(C)(=O)=O)cc1 | inconclusive: 3.98 µM [activator, single point]
Cc1nc2nc(CNC(=O)OC(C)(C)C)nn2c(C)c1CCC(=O)NCc1ccccc1Cl | inactive
CC(C)=CC(=O)Nc1nnc(C)s1 | inconclusive: 12.6 µM [activator, partial curve, poor fit]
CCN(CC)S(=O)(=O)c1cc(C(=O)Nc2nncs2)c(Cl)cc1Cl | inconclusive: 0.0224 µM [activator, full curve, poor fit]
O=C(Nc1nnc(CCS(=O)(=O)c2ccc3ccccc3c2)s1)c1ccc([N+](=O)[O-])cc1 | inconclusive: 0.316 µM [activator, full curve, poor fit]
COc1ccc(CNCc2cc3c(C(C)(C)C)nn(-c4ccccc4)c3[nH]c2=O)cc1 | inconclusive: 35.5 µM [activator, partial curve, poor fit]
CCCC(C)NC(=O)c1ccc(F)cc1 (centres undefined) | inactive
Cc1cc(C)n2c(SCC(=O)Nc3c(C)n(C)n(-c4ccccc4)c3=O)nnc2n1 | inconclusive: 3.98 µM [activator, full curve, poor fit]
CC(C)Cn1c(=O)c2c(c3ccccc31)OC(C)C(=O)N2 (centres undefined) | inconclusive: 11.2 µM [activator, single point]
CC1=C(C(=O)Nc2ccc(C)cc2)C(c2ccccc2Cl)n2nnnc2N1 (centres undefined) | inconclusive: 2.24 µM [activator, partial curve]
